# Source: PubChem BioAssay AID488969 (Vanderbilt High Throughput Screening Facility, 2010)
# Over roughly 110,000 compounds, “z-score” has its median near -0.1; the highest 2% begin near 2. The list shows a part of the results. Calls of active or inactive are those of the source.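 How the source made its calls: active means z-score in the third read window above 3 or below -3; inactive means the rest.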
# Molecular target: Metabotropic glutamate receptor 8 (Rattus norvegicus) (UniProt P70579)
# Experiment: mGluR8 Gi/Go-coupled signaling modulation – cell-based, rat, thallium flux, HTS, primary screen (AID 488969)
# Conditions: HEK293 rat mGluR8, GIRK (G protein-gated inwardly rectifying potassium channel) thallium flux, FluoZin2; at 10 µM; stronger effect = higher value; submaximal glutamate (EC20) added with thallium
# Sequence of UniProt P70579 (P70579 whole entry, looked up): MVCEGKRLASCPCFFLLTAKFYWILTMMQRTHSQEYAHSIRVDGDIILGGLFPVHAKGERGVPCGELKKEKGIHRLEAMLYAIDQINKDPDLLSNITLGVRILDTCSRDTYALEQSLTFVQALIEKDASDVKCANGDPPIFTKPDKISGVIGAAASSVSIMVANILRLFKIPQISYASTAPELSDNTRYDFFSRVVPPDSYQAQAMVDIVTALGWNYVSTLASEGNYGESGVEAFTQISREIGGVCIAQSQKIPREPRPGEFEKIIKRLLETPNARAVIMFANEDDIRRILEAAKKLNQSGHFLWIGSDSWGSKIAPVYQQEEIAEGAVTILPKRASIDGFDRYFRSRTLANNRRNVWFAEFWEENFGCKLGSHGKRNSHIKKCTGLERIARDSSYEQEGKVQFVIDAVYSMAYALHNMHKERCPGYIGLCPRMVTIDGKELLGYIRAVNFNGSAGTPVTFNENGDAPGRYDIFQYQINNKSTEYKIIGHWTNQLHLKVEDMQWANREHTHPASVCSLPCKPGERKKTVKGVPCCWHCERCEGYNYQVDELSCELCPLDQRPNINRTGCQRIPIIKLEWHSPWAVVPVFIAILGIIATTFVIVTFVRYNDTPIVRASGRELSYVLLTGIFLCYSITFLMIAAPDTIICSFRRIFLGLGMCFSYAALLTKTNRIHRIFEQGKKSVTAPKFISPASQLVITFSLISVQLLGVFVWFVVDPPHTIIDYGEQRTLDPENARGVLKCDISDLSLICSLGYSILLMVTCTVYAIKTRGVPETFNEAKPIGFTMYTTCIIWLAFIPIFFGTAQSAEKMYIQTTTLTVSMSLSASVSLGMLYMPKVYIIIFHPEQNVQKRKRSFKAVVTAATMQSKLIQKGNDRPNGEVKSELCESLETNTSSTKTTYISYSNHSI
row,SMILES,z-score
1,CC(C)[C@H](NC(=O)C1(c2ccccc2)CCN(C(=O)OC(C)(C)C)CC1)C(=O)O,-1.06
2,O=C1CCCC/C1=C\Nc1ccccc1C(=O)O,-0.313
3,CCOc1ccc(OCC)c(NS(=O)(=O)c2ccc3c(c2)CCN3C(=O)C2CCC2)c1,-0.364
4,COc1ccc(CCN2C(=O)CC(Cc3ccc(Br)cc3)C2=O)cc1OC (stereo not given),-0.0941
5,Cc1nnc(SCc2c(Cl)cccc2Cl)s1,-0.21
6,COc1ccc(NS(=O)(=O)c2cc(NC(=O)c3cnccn3)ccc2N2CCCC2)cc1,-0.041
7,Cc1cc(C)n(-c2ccc(OCC(=O)O)nn2)n1,-0.0885
8,Cc1ccc2nc(C3CCN(CC(=O)N4CCCCCC4)CC3)[nH]c2c1,-0.125
9,O=C(c1cccc(COc2cccc3ccccc23)c1)N1CCCC1,-0.0861
10,O=C(NC(=S)N1CCN(c2ccc([N+](=O)[O-])cc2)CC1)c1ccc(F)cc1,active: 9.01
11,O=C1C(=O)N(CNc2cccnc2)c2ccccc21,-0.21
12,O=[N+]([O-])c1ccc(N2CCN(S(=O)(=O)c3ccccc3)CC2)cc1NCc1ccco1,-0.155
13,O=C(CNS(=O)(=O)c1ccc(Br)s1)N1CCCC1,0.497
14,CCC(C)c1ccc(O)c(/C=N/O)c1 (stereo not given),0.177
15,CCC(C)c1ccccc1NC(=S)Nc1cccnc1 (stereo not given),-0.189
16,COc1ccc(CNC(=O)c2cc(C3CC3)on2)cc1,-0.593
17,CCOC(=O)N1CCN(S(=O)(=O)c2ccc(OCC(=O)OC)c(Cl)c2)CC1,0.497
18,Cc1ccc(N(CC(=O)Nc2ccc(F)cc2)S(=O)(=O)N2CCCC2)cc1,-0.846
19,O=[N+]([O-])c1c(Nc2ccccc2)ccc2nonc12,-0.0615
20,O=C(COc1ccc(C(=O)NCCc2ccccc2)cc1)Nc1ccccc1,-0.451
21,COc1cc2c(cc1OC)CN(C(C)C(=O)N1CCc3ccccc31)CC2 (stereo not given),0.661
22,CNC(=S)N(Cc1ccc2c(c1)OCO2)C1CC(=O)N(c2ccc(F)cc2)C1=O (stereo not given),0.0865

row,SMILES,z-score
1,Cc1cccc2cc(CN(Cc3cccs3)C(=S)NCc3ccco3)c(=O)[nH]c12,0.0639
2,COc1ccc(C(=O)C[n+]2ccccc2C)cc1,0.831
3,COc1ccc(-c2noc(CCC(=O)NCCN3CCN(c4ccccc4F)CC3)n2)cc1,-0.0754
4,CC(=O)Nc1ccc2c(c1)ncn2C,-0.0444
5,CC(=O)Oc1ccc(/C=N/NC(=S)Nc2ccccc2)cc1,-0.154
6,CC(Sc1nc2ccccc2n1C)C(=O)NC(c1ccccc1)c1ccccc1 (stereo not given),-0.468
7,NNc1nc(-c2ccccc2)cc(-c2ccccc2O)n1,-0.293
8,O=C(NCC1c2ccccc2CCN1C(=O)CN1C(=O)c2ccccc2C1=O)C1CCCCC1 (stereo not given),0.166
9,COc1cc(/C=C(/C#N)c2nc3ccccc3[nH]2)ccc1Oc1ncccc1[N+](=O)[O-],-0.144
10,CCOC(=O)c1cnc2ccc(Cl)cc2c1Nc1ccc(S(=O)(=O)Nc2ncccn2)cc1,0.216
11,Nc1ccc(-n2nncc2-c2ccco2)cc1,-0.123
12,O=[N+]([O-])c1ccc(/C=N/NC(=S)Nc2ccccc2F)o1,active: 6.05
13,CCCCOC(=O)c1ccc(NC(=S)NC(=O)c2c(Cl)cnn2CC)cc1,active: 8.06
14,COc1ccc(C(=O)N2CCCC2)cc1S(=O)(=O)N1CCOCC1,-0.383
15,Cc1oc(C)c(C(=O)O)c1COc1ccc(C(=O)O)cc1,0.2
16,O=C(CCNC(=O)c1ccccc1Cl)Nc1ccc2c(c1)OCO2,0.0986
17,O=C(c1ccc(Cl)cc1)C(Cn1cncn1)C(Sc1ccccc1)c1ccccc1 (stereo not given),-0.0227
18,O=S(=O)(NC1=NCCCCCC1)c1cccs1,0.549
19,COc1cccc(COc2nc3c(c(=O)n(C)c(=O)n3C)n2C)c1,-0.0675
20,CCN(CC)c1ccc(NC(=O)C2CCCN(S(=O)(=O)c3cnc[nH]3)C2)c(C)c1 (stereo not given),1.1
21,COc1ccc(C)cc1NC(=O)Nc1ccccc1,active: 11.5
22,CCOc1ccccc1NC(=S)/C(=C(\[O-])c1ccc2c(c1)OCCO2)[n+]1ccc(CC)cc1,-0.291

row,SMILES,z-score
1,O=C(N/N=C/c1ccc([N+](=O)[O-])o1)c1cc(-c2ccncc2)nc2ccccc12,-0.212
2,COC(=O)C1CCN(C(=O)c2ccc(SC)cc2OC)CC1,0.216
3,O=C(NNC(=O)c1ccco1)c1cccc([N+](=O)[O-])c1,-0.222
4,CCOC(=O)N1CCC(NCCNC(=O)c2ccccc2Cl)CC1,-0.00637
5,CC1CC(N(C(=O)c2ccco2)c2ccccc2)c2ccccc2N1C(=O)c1ccco1 (stereo not given),-1.07
6,COC(=O)c1cc(Br)c(=O)n(-c2ccccn2)c1,0.856
7,CCCN(CCC)S(=O)(=O)c1cccc(C(=O)Nc2ccc3c(c2)OCO3)c1,-0.129
8,COc1[nH]c(/N=C/c2ccccc2)c(C#N)c1C#N,-0.526
9,Cc1cccc(N2CCN(C(=S)c3ccc(-c4ccccc4[N+](=O)[O-])o3)CC2)c1,-0.333
10,O=C1c2ccccc2C(=O)N1CCCON1C(=O)c2ccccc2C1=O,0.703
11,CCOC(=O)C(C)On1c(-c2ccc(Cl)cc2)nc2ccc([N+](=O)[O-])cc21 (stereo not given),-1.56
12,Cc1ccc(S(=O)(=O)CCC(=O)OCc2ccc(Cl)c(Cl)c2)cc1,-0.149
13,O=C(c1ccccc1)C1C(=O)c2ccccc2C1=O,-0.319
14,COc1ccc(-n2c(CNC(=O)c3ccc(S(=O)(=O)N4CCCC4)cc3)n[nH]c2=S)cc1,-0.254
15,Cc1oc2c(c1C(=O)c1ccccc1)C(=O)C(=O)c1ccccc1-2,-0.17
16,CCC(C)NC(=O)C(NS(=O)(=O)c1ccc2c(c1)c(=O)n(C)c(=O)n2C)c1ccccc1 (stereo not given),-0.209
17,COc1ccc(CN2C(=O)CCC2(C)C(=O)NCc2cccnc2)c(OC)c1 (stereo not given),-0.182
18,CCOC(=O)c1cc(N)cc([N+](=O)[O-])c1,0.152
19,N#CC1=C(N)N2C(=C(C#N)C13CCN(Cc1ccccc1)CC3)Nc1ccccc12,-0.978
20,O=c1c2cnn(-c3ccccc3)c2ncn1Cc1ccco1,-0.516
21,CCn1nc2cc(C(=O)NCc3cc(C(F)(F)F)cc(C(F)(F)F)c3)ccc2c1OC,-0.177
22,CN(C)C(CNS(=O)(=O)c1ccc(F)cc1)c1cccnc1 (stereo not given),-0.0944

row,SMILES,z-score
1,C=CCn1c(SCC(=O)NCc2ccccc2)nnc1-c1cc(Br)ccc1O,-2.09
2,CCN(CC)c1ccc(C(=O)OCC(=O)NC2CCCCC2C)cc1 (stereo not given),-0.113
3,Cc1ccc(/C(N)=N/OC(=O)c2ccc(Cl)cc2Cl)cc1,-0.0741
4,CCOc1ccc2nc(C(C)O)[nH]c2c1 (stereo not given),0.172
5,O=C(c1cnccn1)N1CCN(C/C=C/c2ccccc2)CC1,0.432
6,Cc1cccc(-n2c(O)c(C=Nc3ccccc3N)c(=O)[nH]c2=O)c1,-0.0327
7,CN1CCN(c2ccccc2NC(=O)C(Cc2ccccc2)n2cccc2)CC1 (stereo not given),-1.65
8,CC1=CCC2C(=O)N(c3ccc(C)c(Br)c3)C(=O)C2C1 (stereo not given),0.804
9,Cc1ccc(-n2nnnc2SC(C)C(=O)NCC(=O)Nc2ccc(F)c(F)c2F)c(C)c1 (stereo not given),-0.287
10,O=C(CSCC(=O)OCC(=O)c1ccc(Br)cc1)Nc1cccc2ccccc12,-0.251
11,CCCCN1C(=O)c2ccc(C(=O)NC3=NCCS3)cc2C1=O,-0.236
12,Cc1ccccc1NC(=O)C(C)O/N=C/c1cccc([N+](=O)[O-])c1 (stereo not given),-0.426
13,O=C(CSc1nnc(CNC(=O)c2ccccc2F)o1)NCCc1ccccc1,-0.163
14,CCOC(=O)C(Oc1ccc(=O)[nH]n1)C(C)=O (stereo not given),-0.00949
15,COC(=O)c1ccc(C)c(NC(=O)CCc2cc(OC)c(OC)c(OC)c2)c1,-0.0799
16,Cc1ccccc1NCCNc1ccccc1C,-0.531
17,CCOC(=O)/C(=C/c1c[nH]c2ccccc12)NC(C)=O,-0.229
18,Cc1ccc(C(=O)CCC(=O)Nc2cccc(C(F)(F)F)c2)cc1,1.26
19,Cc1cc(N2CCOCC2)n2ncc(-c3ccccc3)c2n1,-0.401
20,CCOC(=O)c1ccc(NC(=O)CN2C(=O)CNC2=O)cc1,-0.263
21,CCOc1ccccc1N(CC(=O)OC)S(C)(=O)=O,-0.0628
22,Nn1c(SCC(=O)Nc2ccc3c(c2)OCO3)nnc1-c1cccc(Cl)c1,-0.0648

row,SMILES,z-score
1,Cc1nn(-c2ccc(Cl)cc2)c2sc(C(=O)N3CCN(c4ccccn4)CC3)cc12,0.648
2,CCOc1cc(NC2CS(=O)(=O)CC2O)c(OCC)cc1NC(=O)c1ccccc1 (stereo not given),-0.294
3,CC(C)CCNC(=O)CN(C(=O)CCC(=O)Nc1ccccn1)c1ccc2c(c1)OCCO2,-0.262
4,CCOc1ccc(CN(C)CC(=O)Nc2ccc([N+](=O)[O-])cc2Cl)cc1,0.327
5,Cc1ccc(C(=O)c2cnc3ccccc3c2-c2ccccc2)cc1,-1.64
6,COc1cc(-c2noc(-c3cccs3)n2)cc(OC)c1OC,-0.391
7,CC1(C)CC(N2CCN(c3ccccc3)CC2)=CC(=[N+]2CCCC2)C1,0.22
8,C/C(=C\C(=O)c1ccccc1)Nc1ccc(O)cc1,-0.205
9,O=C(CCC1CCCCC1)NCc1ccc(F)cc1,-0.221
10,Cc1cc2[nH]ncc2cc1NC(=S)NC(=O)c1ccccc1,0.0234
11,CC(=O)Nc1ccc2oc(-c3cc(F)c(F)cc3Cl)nc2c1,0.102
12,C=C(C)CNC(=S)N/N=C(\C)c1ccc(Cl)s1,2.26
13,CCOC(=O)c1c(-c2ccccc2)csc1NC(=O)c1cc2ccccc2oc1=O,0.0962
14,CCC(C)c1ccc(NC(=O)CC(C)=O)cc1 (stereo not given),1.44
15,CCOC(=O)c1cnn(-c2ccc(C(C)C)cc2)c1NC(=O)C1CCC1,-0.188
16,CC12CCC(C(=O)N(NC(=O)c3cccnc3)C1=O)C2(C)C (stereo not given),-0.471
17,COc1ccc(NS(=O)(=O)c2cc(NC(=O)c3cccc(OCc4c(C)noc4C)c3)ccc2OC)cc1,-1.32
18,CCCCOc1ccc(C(=O)N/C(=C/C=C/c2ccccc2)C(=O)N2CCOCC2)cc1,-0.206
19,Fc1ccc(NCc2cccnc2)cc1F,-0.0239
20,COc1ccc(/C=C/c2nnc(NC(=O)COc3ccc(C)cc3)s2)cc1,-0.128
21,CCC(C)NC(=O)c1cc(C)no1 (stereo not given),0.285
22,Oc1ccc(/C=N/n2cnn(Cc3ccccc3Cl)c2=S)c(O)c1,-1.11
